# Results: patent US8283291B2, “Herbicidal composition” (Kumiai Chemical Industry Co., Ltd., priority 2006, dated 2012)
# At least one read-out could not be matched to a standard name with certainty.
# Key:
# velvetleaf (ABUTH) [1] = experiment: Test 1 on herbicidal effects against weeds and phytotoxicity by upland soil treatment; format: in vivo, Abutilon theophrasti; conditions: 28th day
# From the text: (§1) In a plastic pot of 14 cm in length×23 cm in width×8 cm in depth, upland soil was filled, and seeds of soybean (GLXMA), corn (ZEAMX), Ipomoea lacunosa L. (IPOLA) and velvetleaf (ABUTH) were sown and covered with soil. A wettable powder prepared in accordance with Formulation Example 1 was weighed so that the active ingredients became the prescribed amounts, diluted with water and uniformly applied to the soil surface by means of a small size spray at a rate of 500 liters per 1 hectare. Thereafter, cultivation was carried out in a greenhouse, and on the 28th day after the treatment, the herbicidal effects and phytotoxicity were examined in accordance with the standards as identified in Table 15.
# [2] = test system: Ipomoea lacunosa L. (IPOLA); experiment: as above; format: in vivo; conditions: 28th day
# From the text: as §1
# greenfoxtail (SETVI) = experiment: Test on herbicidal effects against weeds and phytotoxicity by foliage treatment in upland field; format: in vivo, Setaria viridis; conditions: 21st day
# Description: (§2) In a plastic pot of 11 cm in length×11 cm in width×11 cm in depth, the upland soil was filled, and seeds of corn (ZEAMX), soybean (GLXMA), greenfoxtail (SETVI), shattercane (SORVU), redroot pigweed (AMARE), Ipomoea lacunosa L. (IPOLA) and velvetleaf (ABUTH) were sown and covered with soil.
# (§3) Then, cultivation was carried out in a greenhouse for 10 days. Then, a wettable powder prepared in accordance with Formulation Example 1 was weighed so that active ingredients would be the prescribed amounts, diluted with water and uniformly applied on the soil surface by means of a small size spray at a rate of 500 liter per 1 hectare. Thereafter, cultivation was carried out in a greenhouse, and on the 21st day after the treatment, the herbicidal effects and phytotoxicity were examined in accordance with the standards as identified in Table 15.
# velvetleaf (ABUTH) [3] = experiment: as above; format: in vivo, Abutilon theophrasti; conditions: 21st day
# Description: as §2, §3
# [4] = test system: Ipomoea lacunosa L. (IPOLA); experiment: as above; format: in vivo; conditions: 21st day
# Description: as §2, §3
# shattercane (SORVU) = experiment: as above; format: in vivo, Sorghum vulgare; conditions: 21st day
# Description: as §2, §3
# redroot pigweed (AMARE) = experiment: as above; format: in vivo, Amaranthus retroflexus L.; conditions: 21st day
# Description: as §2, §3
smiles,measurement,setting,value
CC(C)C1(C)N=C(c2nc3ccccc3cc2C(=O)O)NC1=O (centres unmarked) [Imazaquin],herbicidal effect ABUTH,velvetleaf (ABUTH) [1]; 50 gai/ha,3 (Herbicidal effect or phytotoxicity of at least 30% and less than 40%)
same,herbicidal effect IPOLA,[2]; 50 gai/ha,5 (Herbicidal effect or phytotoxicity of at least 50% and less than 60%)
COc1cc(OC)nc(Oc2cccc(Oc3nc(OC)cc(OC)n3)c2C(=O)O)n1 [Bispyribac-sodium],herbicidal effect SETVI,greenfoxtail (SETVI); 12.5 gai/ha,7 (Herbicidal effect or phytotoxicity of at least 70% and less than 80%)
same,herbicidal effect ABUTH,velvetleaf (ABUTH) [3]; 12.5 gai/ha,5 (Herbicidal effect or phytotoxicity of at least 50% and less than 60%)
same,herbicidal effect IPOLA,[4]; 12.5 gai/ha,7 (Herbicidal effect or phytotoxicity of at least 70% and less than 80%)
same,herbicidal effect SORVU,shattercane (SORVU); 12.5 gai/ha,2 (Herbicidal effect or phytotoxicity of at least 20% and less than 30%)
same,herbicidal effect AMARE,redroot pigweed (AMARE); 12.5 gai/ha,10 (Herbicidal effect or phytotoxicity of 100%)
COC(=O)NS(=O)(=O)c1ccc(N)cc1 [Asulam],herbicidal effect SETVI,greenfoxtail (SETVI); 1000 gai/ha,9 (Herbicidal effect or phytotoxicity of at least 90% and less than 100%)
same,herbicidal effect ABUTH,velvetleaf (ABUTH) [3]; 1000 gai/ha,10 (Herbicidal effect or phytotoxicity of 100%)
same,herbicidal effect IPOLA,[4]; 1000 gai/ha,10 (Herbicidal effect or phytotoxicity of 100%)
same,herbicidal effect SORVU,shattercane (SORVU); 1000 gai/ha,10 (Herbicidal effect or phytotoxicity of 100%)
same,herbicidal effect AMARE,redroot pigweed (AMARE); 1000 gai/ha,10 (Herbicidal effect or phytotoxicity of 100%)
O=C(O)c1nc(Cl)ccc1Cl [Clopyralid],herbicidal effect ABUTH,velvetleaf (ABUTH) [1]; 200 gai/ha,10 (Herbicidal effect or phytotoxicity of 100%)
same,herbicidal effect IPOLA,[2]; 200 gai/ha,6 (Herbicidal effect or phytotoxicity of at least 60% and less than 70%)
CC(C)N1C(=O)c2ccccc2NS1(=O)=O [Bentazone],herbicidal effect SETVI,greenfoxtail (SETVI); 400 gai/ha,2 (Herbicidal effect or phytotoxicity of at least 20% and less than 30%)
same,herbicidal effect ABUTH,velvetleaf (ABUTH) [3]; 400 gai/ha,10 (Herbicidal effect or phytotoxicity of 100%)
same,herbicidal effect IPOLA,[4]; 400 gai/ha,8 (Herbicidal effect or phytotoxicity of at least 80% and less than 90%)
same,herbicidal effect SORVU,shattercane (SORVU); 400 gai/ha,0 (Herbicidal effect or phytotoxicity of at least 0% and less than 10%)
same,herbicidal effect AMARE,redroot pigweed (AMARE); 400 gai/ha,7 (Herbicidal effect or phytotoxicity of at least 70% and less than 80%)
CCc1cnc(C2=NC(C)(C(C)C)C(=O)N2)c(C(=O)O)c1 (centres unmarked) [Imazethapyr],herbicidal effect ABUTH,velvetleaf (ABUTH) [1]; 50 gai/ha,4 (Herbicidal effect or phytotoxicity of at least 40% and less than 50%)
same,herbicidal effect IPOLA,[2]; 50 gai/ha,4 (Herbicidal effect or phytotoxicity of at least 40% and less than 50%)
COc1cc(OC)nc(Sc2cccc(Cl)c2C(=O)O)n1 [Pyrithiobac-sodium],herbicidal effect SETVI,greenfoxtail (SETVI); 50 gai/ha,6 (Herbicidal effect or phytotoxicity of at least 60% and less than 70%)
same,herbicidal effect ABUTH,velvetleaf (ABUTH) [3]; 50 gai/ha,7 (Herbicidal effect or phytotoxicity of at least 70% and less than 80%)
same,herbicidal effect ABUTH,velvetleaf (ABUTH) [1]; 25 gai/ha,8 (Herbicidal effect or phytotoxicity of at least 80% and less than 90%)
same,herbicidal effect IPOLA,[2]; 25 gai/ha,3 (Herbicidal effect or phytotoxicity of at least 30% and less than 40%)
same,herbicidal effect IPOLA,[4]; 50 gai/ha,9 (Herbicidal effect or phytotoxicity of at least 90% and less than 100%)
same,herbicidal effect SORVU,shattercane (SORVU); 50 gai/ha,6 (Herbicidal effect or phytotoxicity of at least 60% and less than 70%)
same,herbicidal effect AMARE,redroot pigweed (AMARE); 50 gai/ha,10 (Herbicidal effect or phytotoxicity of 100%)
CNc1cnn(-c2cccc(C(F)(F)F)c2)c(=O)c1Cl [Norflurazon],herbicidal effect ABUTH,velvetleaf (ABUTH) [1]; 400 gai/ha,10 (Herbicidal effect or phytotoxicity of 100%)
same,herbicidal effect IPOLA,[2]; 400 gai/ha,6 (Herbicidal effect or phytotoxicity of at least 60% and less than 70%)
CC(C)N(C(=O)COc1nnc(C(F)(F)F)s1)c1ccc(F)cc1 [Flufenacet],herbicidal effect ABUTH,velvetleaf (ABUTH) [1]; 200 gai/ha,7 (Herbicidal effect or phytotoxicity of at least 70% and less than 80%)
same,herbicidal effect IPOLA,[2]; 200 gai/ha,4 (Herbicidal effect or phytotoxicity of at least 40% and less than 50%)
CCN(CC)C(=O)SCc1ccc(Cl)cc1 [Thiobencarb],herbicidal effect ABUTH,velvetleaf (ABUTH) [1]; 1600 gai/ha,10 (Herbicidal effect or phytotoxicity of 100%)
same,herbicidal effect IPOLA,[2]; 1600 gai/ha,2 (Herbicidal effect or phytotoxicity of at least 20% and less than 30%)
Cc1nn(-c2cc(NS(C)(=O)=O)c(Cl)cc2Cl)c(=O)n1C(F)F [Sulfentrazone],herbicidal effect ABUTH,velvetleaf (ABUTH) [1]; 50 gai/ha,10 (Herbicidal effect or phytotoxicity of 100%)
same,herbicidal effect IPOLA,[2]; 50 gai/ha,6 (Herbicidal effect or phytotoxicity of at least 60% and less than 70%)
CC1(C)CON(Cc2ccccc2Cl)C1=O [Clomazone],herbicidal effect ABUTH,velvetleaf (ABUTH) [1]; 200 gai/ha,10 (Herbicidal effect or phytotoxicity of 100%)
same,herbicidal effect IPOLA,[2]; 200 gai/ha,6 (Herbicidal effect or phytotoxicity of at least 60% and less than 70%)
CCOC(=O)C(C)Oc1ccc(Oc2cnc3cc(Cl)ccc3n2)cc1 (centres unmarked) [Quizalofop-ethyl],herbicidal effect SETVI,greenfoxtail (SETVI); 25 gai/ha,10 (Herbicidal effect or phytotoxicity of 100%)
same,herbicidal effect ABUTH,velvetleaf (ABUTH) [3]; 25 gai/ha,0 (Herbicidal effect or phytotoxicity of at least 0% and less than 10%)
same,herbicidal effect IPOLA,[4]; 25 gai/ha,0 (Herbicidal effect or phytotoxicity of at least 0% and less than 10%)
same,herbicidal effect SORVU,shattercane (SORVU); 25 gai/ha,10 (Herbicidal effect or phytotoxicity of 100%)
same,herbicidal effect AMARE,redroot pigweed (AMARE); 25 gai/ha,0 (Herbicidal effect or phytotoxicity of at least 0% and less than 10%)
COC(=O)CSc1cc(/N=c2\sc(=O)n3n2CCCC3)c(F)cc1Cl [Fluthiacet-methyl],herbicidal effect SETVI,greenfoxtail (SETVI); 10 gai/ha,2 (Herbicidal effect or phytotoxicity of at least 20% and less than 30%)
same,herbicidal effect ABUTH,velvetleaf (ABUTH) [3]; 10 gai/ha,10 (Herbicidal effect or phytotoxicity of 100%)
same,herbicidal effect IPOLA,[4]; 10 gai/ha,9 (Herbicidal effect or phytotoxicity of at least 90% and less than 100%)
same,herbicidal effect SORVU,shattercane (SORVU); 10 gai/ha,0 (Herbicidal effect or phytotoxicity of at least 0% and less than 10%)
same,herbicidal effect AMARE,redroot pigweed (AMARE); 10 gai/ha,10 (Herbicidal effect or phytotoxicity of 100%)
C[C@H](NC(=O)[C@H](C)NC(=O)[C@@H](N)CCP(C)(=O)O)C(=O)O [Bilanafos],herbicidal effect SETVI,greenfoxtail (SETVI); 1000 gai/ha,9 (Herbicidal effect or phytotoxicity of at least 90% and less than 100%)
same,herbicidal effect ABUTH,velvetleaf (ABUTH) [3]; 1000 gai/ha,10 (Herbicidal effect or phytotoxicity of 100%)
same,herbicidal effect IPOLA,[4]; 1000 gai/ha,10 (Herbicidal effect or phytotoxicity of 100%)
same,herbicidal effect SORVU,shattercane (SORVU); 1000 gai/ha,10 (Herbicidal effect or phytotoxicity of 100%)
same,herbicidal effect AMARE,redroot pigweed (AMARE); 1000 gai/ha,10 (Herbicidal effect or phytotoxicity of 100%)
"Cn1nc(C(F)(F)F)c(CS(=O)(=O)C2=NOC(C)(C)C2)c1OC(F)F [3-0054, 3-[(5-difluoromethoxy-1-methyl-3-trifluoromethylpyrazol-4-yl)methylsulfonyl]-4,5-dihydro-5,5-dimethylisoxazole]",herbicidal effect SETVI,greenfoxtail (SETVI); 25 gai/ha,4 (Herbicidal effect or phytotoxicity of at least 40% and less than 50%)
same,herbicidal effect SETVI,greenfoxtail (SETVI); 50 gai/ha,7 (Herbicidal effect or phytotoxicity of at least 70% and less than 80%)
same,herbicidal effect SETVI,greenfoxtail (SETVI); 100 gai/ha,8 (Herbicidal effect or phytotoxicity of at least 80% and less than 90%)
same,herbicidal effect ABUTH,velvetleaf (ABUTH) [3]; 25 gai/ha,0 (Herbicidal effect or phytotoxicity of at least 0% and less than 10%)
same,herbicidal effect ABUTH,velvetleaf (ABUTH) [3]; 50 gai/ha,0 (Herbicidal effect or phytotoxicity of at least 0% and less than 10%)
same,herbicidal effect ABUTH,velvetleaf (ABUTH) [3]; 100 gai/ha,4 (Herbicidal effect or phytotoxicity of at least 40% and less than 50%)
same,herbicidal effect ABUTH,velvetleaf (ABUTH) [1]; 25 gai/ha,6 (Herbicidal effect or phytotoxicity of at least 60% and less than 70%)
same,herbicidal effect ABUTH,velvetleaf (ABUTH) [1]; 50 gai/ha,7 (Herbicidal effect or phytotoxicity of at least 70% and less than 80%)
same,herbicidal effect ABUTH,velvetleaf (ABUTH) [1]; 100 gai/ha,8 (Herbicidal effect or phytotoxicity of at least 80% and less than 90%)
same,herbicidal effect IPOLA,[2]; 25 gai/ha,1 (Herbicidal effect or phytotoxicity of at least 10% and less than 20%)
same,herbicidal effect IPOLA,[2]; 50 gai/ha,2 (Herbicidal effect or phytotoxicity of at least 20% and less than 30%)
same,herbicidal effect IPOLA,[2]; 100 gai/ha,3 (Herbicidal effect or phytotoxicity of at least 30% and less than 40%)
same,herbicidal effect IPOLA,[4]; 25 gai/ha,0 (Herbicidal effect or phytotoxicity of at least 0% and less than 10%)
same,herbicidal effect IPOLA,[4]; 50 gai/ha,0 (Herbicidal effect or phytotoxicity of at least 0% and less than 10%)
same,herbicidal effect IPOLA,[4]; 100 gai/ha,1 (Herbicidal effect or phytotoxicity of at least 10% and less than 20%)
same,herbicidal effect SORVU,shattercane (SORVU); 25 gai/ha,0 (Herbicidal effect or phytotoxicity of at least 0% and less than 10%)
same,herbicidal effect SORVU,shattercane (SORVU); 50 gai/ha,4 (Herbicidal effect or phytotoxicity of at least 40% and less than 50%)
same,herbicidal effect SORVU,shattercane (SORVU); 100 gai/ha,6 (Herbicidal effect or phytotoxicity of at least 60% and less than 70%)
same,herbicidal effect AMARE,redroot pigweed (AMARE); 25 gai/ha,5 (Herbicidal effect or phytotoxicity of at least 50% and less than 60%)
same,herbicidal effect AMARE,redroot pigweed (AMARE); 50 gai/ha,7 (Herbicidal effect or phytotoxicity of at least 70% and less than 80%)
same,herbicidal effect AMARE,redroot pigweed (AMARE); 100 gai/ha,10 (Herbicidal effect or phytotoxicity of 100%)
